T1: recombinant human AREG (human, UniProt P15514 101-198)
T1 sequence (looked up): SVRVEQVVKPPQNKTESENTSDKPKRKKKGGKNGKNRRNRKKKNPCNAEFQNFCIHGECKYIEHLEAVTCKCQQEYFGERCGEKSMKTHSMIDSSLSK

T2: TGFβ2 (UniProt P61812 303-414, limits assumed)
T2 sequence (looked up): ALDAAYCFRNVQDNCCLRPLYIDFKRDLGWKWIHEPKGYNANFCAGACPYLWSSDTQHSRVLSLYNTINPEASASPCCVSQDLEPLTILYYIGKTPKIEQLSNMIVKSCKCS


How the values were obtained:
[1] = molecular target: T1, recombinant human AREG; assay: cell-based or functional assay
[2] = molecular target: recombinant human TGFβ1 (human, UniProt P01137 in part); assay: SPR, Biacore T200, variant captured on Protein A/G CM5 chip, ligand injected
Chain of UniProt P01137 (P01137 279-390 limits assumed): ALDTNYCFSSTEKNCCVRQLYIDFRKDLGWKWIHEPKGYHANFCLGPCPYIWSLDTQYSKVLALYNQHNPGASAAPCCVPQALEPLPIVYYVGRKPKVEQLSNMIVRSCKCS

[3] = molecular target: T2, TGFβ2; assay: as above
[4] = molecular target: T1, recombinant human AREG; assay: as above

| IC50 (read off the curve), SRE-luciferase reporter induced by AREG 50 nM [1] [nM] | Kd [2] [nM] | koff [2] [s⁻¹] | kon [2] [M⁻¹ s⁻¹] | Kd [3] [nM] | koff [3] [s⁻¹] | kon [3] [M⁻¹ s⁻¹] | Kd [4] [nM] | koff [4] [s⁻¹] | kon [4] [M⁻¹ s⁻¹] | Binder |
| --- | --- | --- | --- | --- | --- | --- | --- | --- | --- | --- |
| ~4 | 0.000718 | 5.94e-05 | 8.28e+07 | 6.71 | 0.901 | 1.34e+08 | 0.0359 | 0.000614 | 1.7e+07 | anti-AREG/TRII bi-functional fusion protein variant 030 (other, also called 17-residue deletion) heavy: EVQLVESGGGLVKPGGSLRLSCAASGFTFSSYAMSWVRQAPGKGLEWVSTISTGGSHTYYPESVKGRFTISRDNAKNSLYLQMNSLRAEDTAVYYCARHGYLLYEGYYEWYFDYWGQGTLVTVSSASTKGPSVFPLAPCSRSTSESTAALGCLVKDYFPEPVTVSWNSGALTSGVHTFPAVLQSSGLYSLSSVVTVPSSSLGTKTYTCNVDHKPSNTKVDKRV[omitted - human IgG4 Fc with S228P (EU numbers)]AGGGGSGGGGSGGGGSGGGGSGNNGAVKFPQLCKFCDVRFSTCDNQKSCMSNCSITSICEKPQEVCVAVWRKNDENITLETVCHDPKLPYHDFILEDAASPKCIMKEKKKPGETFFMCSCSSDECNDNIIFSEEYNTSNPD VL: DIVMTQSPDSLAVSLGERATINCKSSQSVDYEGHSFLNWYQQKPGQPPKLLIYAASNRESGVPDRFSGSGSGTDFTLTISSLQAEDVAVYYCQQSTENPPYTFGQGTKLEIK |
| – | 0.000746 | 3.5e-05 | 4.69e+07 | 0.65 | 0.0124 | 1.91e+07 | 0.0356 | 0.000687 | 1.93e+07 | anti-AREG/TRII bi-functional fusion protein variant 010 (other, Anti-AREG antibody whose heavy chain C-terminus is fused through (G4S)4G to the TRII ectodomain; Produced in 293-F cells; also called anti-AREG/TRII variant 010) heavy: EVQLVESGGGLVKPGGSLRLSCAASGFTFSSYAMSWVRQAPGKGLEWVSTISTGGSHTYYPESVKGRFTISRDNAKNSLYLQMNSLRAEDTAVYYCARHGYLLYEGYYEWYFDYWGQGTLVTVSSASTKGPSVFPLAPCSRSTSESTAALGCLVKDYFPEPVTVSWNSGALTSGVHTFPAVLQSSGLYSLSSVVTVPSSSLGTKTYTCNVDHKPSNTKVDKRV[omitted - human IgG4 Fc with S228P (EU numbers)]AGGGGSGGGGSGGGGSGGGGSGIPPHVQKSVNNDMIVTDNNGAVKFPQLCKFCDVRFSTCDNQKSCMSNCSITSICEKPQEVCVAVWRKNDENITLETVCHDPKLPYHDFILEDAASPKCIMKEKKKPGETFFMCSCSSDECNDNIIFSEEYNTSNPD VL: DIVMTQSPDSLAVSLGERATINCKSSQSVDYEGHSFLNWYQQKPGQPPKLLIYAASNRESGVPDRFSGSGSGTDFTLTISSLQAEDVAVYYCQQSTENPPYTFGQGTKLEIK |
